In article PMC6919601, “Identification of Plasmodium dipeptidyl aminopeptidase allosteric inhibitors by high throughput screening” (PLoS ONE, 2019):
The whole screen tested about 110,000 compounds, of which about 230 (0.21%) showed an effect of 50% or more. The list shows a part of the results.
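Note: 30 min substrate incubation versus DMSO and 10 µM JCP410 controls.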

Each molecule was assayed against DPAP1 (Plasmodium falciparum, UniProt Q8IIJ9) (assay: primary screen, percent inhibition; read by cleavage of a fluorogenic dipeptide substrate; higher = more effect of the substance).
DPAP1, sequence (Q8IIJ9 whole entry, looked up): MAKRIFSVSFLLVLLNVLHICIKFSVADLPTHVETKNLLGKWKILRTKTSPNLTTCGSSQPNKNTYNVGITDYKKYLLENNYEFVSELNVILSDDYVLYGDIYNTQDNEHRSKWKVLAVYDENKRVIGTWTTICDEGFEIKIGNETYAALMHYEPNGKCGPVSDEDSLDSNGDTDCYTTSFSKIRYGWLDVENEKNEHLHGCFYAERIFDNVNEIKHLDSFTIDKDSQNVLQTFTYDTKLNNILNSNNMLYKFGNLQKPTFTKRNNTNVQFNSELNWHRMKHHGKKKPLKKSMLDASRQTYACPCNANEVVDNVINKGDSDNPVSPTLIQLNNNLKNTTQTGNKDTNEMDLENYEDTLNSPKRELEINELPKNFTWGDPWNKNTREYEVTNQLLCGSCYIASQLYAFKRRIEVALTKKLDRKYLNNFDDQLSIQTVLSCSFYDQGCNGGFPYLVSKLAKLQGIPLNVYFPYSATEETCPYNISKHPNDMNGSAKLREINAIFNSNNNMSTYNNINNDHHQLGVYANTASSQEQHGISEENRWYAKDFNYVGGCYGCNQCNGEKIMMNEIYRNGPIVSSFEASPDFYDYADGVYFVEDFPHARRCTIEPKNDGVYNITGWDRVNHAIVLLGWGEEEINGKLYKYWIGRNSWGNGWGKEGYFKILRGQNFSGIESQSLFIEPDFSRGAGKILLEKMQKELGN
Set-up: species or system P. falciparum D10 trophozoite lysates; single well
`CC1=C(C(=O)OC2CCC(C)CC2)C(c2ccc(C)cc2)NC(=O)N1` (centres unmarked) was tested, and the “% Inhibition @ 10 uM” value was 4.28%.
For `CCOc1ccccc1NC(=O)CN(c1cccc(Cl)c1)S(C)(=O)=O`, the “% Inhibition @ 10 uM” value was -1.43%.
For `Cc1onc(-c2ccccc2Cl)c1C(=O)N(C)c1ccccc1`, the “% Inhibition @ 10 uM” value was 1.13%.
With `CCn1c(SCc2ccc(C(=O)O)o2)nnc1-c1ccc(Cl)cc1` the “% Inhibition @ 10 uM” value was 3.54%.
With `CC(C)(Oc1ccc(-c2ccncn2)cc1)C(=O)O` the “% Inhibition @ 10 uM” value was -5.98%.
With `O=C(Cn1ccc2cc(S(=O)(=O)N3CCCC3)ccc21)NCCc1cccs1` the “% Inhibition @ 10 uM” value was 0.00226%.
In the case of `O=C(/C=C/c1c[nH]c2ccc(Br)cc12)c1ccncc1`, the “% Inhibition @ 10 uM” value is reported as -0.807%.
In the case of `N#CC1=C(N)SC(N)=C(C#N)C1c1c(Cl)cccc1Cl`, the “% Inhibition @ 10 uM” value is reported as 28.7%.
For `C=CC1(C)CCC2C(O1)c1ccccc1OC2(C)C` (centres unmarked), the “% Inhibition @ 10 uM” value was -7.35%.
With `COc1cccc(-c2nc(-c3ccccn3)no2)c1` the “% Inhibition @ 10 uM” value was 5.23%.
`CCC(C(=O)Nc1ncccc1C)(C(F)(F)F)C(F)(F)F` was tested, and the “% Inhibition @ 10 uM” value was -6.06%.
With `CC(=O)/N=C(/Nc1ccc(C)c(Cl)c1)Nc1nc(C)cc(C)n1` the “% Inhibition @ 10 uM” value was -2.74%.
With `O=C(C(c1ccccc1)c1ccccc1)N1CCN(Cc2ccc(F)cc2)CC1` the “% Inhibition @ 10 uM” value was 3.86%.
In the case of `CCOc1ccccc1-n1cnc2cc(C(=O)NCc3ccco3)ccc21`, the “% Inhibition @ 10 uM” value is reported as -0.458%.
`O=C(C1CCN(S(=O)(=O)c2ccccc2)CC1)N1CCC(Cc2ccccc2)CC1` was tested, and the “% Inhibition @ 10 uM” value was 3.16%.
In the case of `CC[C@H](NC(=O)[C@H](CC(C)C)NC1=NC(=O)c2ccccc21)C(=O)c1nc2ccccc2o1`, the “% Inhibition @ 10 uM” value is reported as 8.48%.
In the case of `Brc1ccc(OCc2nn3c(Cc4ccccc4)nnc3s2)cc1`, the “% Inhibition @ 10 uM” value is reported as -1.69%.
For `COc1ccc(NC(=O)CN(C)S(=O)(=O)c2ccc(F)cc2)cc1OC`, the “% Inhibition @ 10 uM” value was -2.29%.
For `N#Cc1c[nH]nc1NCc1cccnc1`, the “% Inhibition @ 10 uM” value was 4.31%.
With `Cc1cc(OCC(=O)NCCN2CCOCC2)ccc1Cl` the “% Inhibition @ 10 uM” value was -5.01%.
For `COc1cc(NC(=O)c2ccccc2F)nc(OC)n1`, the “% Inhibition @ 10 uM” value was -2.8%.
For `Cc1noc(/C=C/N(C)C)c1S(=O)(=O)N(C)Cc1ccc(F)cc1`, the “% Inhibition @ 10 uM” value was 8.97%.
For `COc1cc(OC)c(S(=O)(=O)N2CCOCC2)cc1C(=O)Nc1ccc(Br)cc1`, the “% Inhibition @ 10 uM” value was -7.14%.
With `CCCCNc1nc2cc(OC)c(OC)cc2c2nc(-c3ccccc3)nn12` the “% Inhibition @ 10 uM” value was 0.981%.
With `C=CCSc1ncc(C#N)c2c1CCCC2` the “% Inhibition @ 10 uM” value was -2.87%.
With `Cc1ccccc1-n1nc2c(c1NC(=O)c1ccc(Br)o1)CS(=O)(=O)C2` the “% Inhibition @ 10 uM” value was -1.12%.
`COc1ccc(C2SCC(=O)N2CCc2ccc(OC)c(OC)c2)cc1` (centres unmarked) was tested, and the “% Inhibition @ 10 uM” value was -0.251%.
In the case of `Cc1ccc(N(Cc2ccco2)C(=O)C23CC4CC(CC(C4)C2)C3)cc1`, the “% Inhibition @ 10 uM” value is reported as 0.565%.
With `O=C(NC1CCN(Cc2ccccc2)CC1)c1cc2c(Cl)ccc3c2n1CCO3` the “% Inhibition @ 10 uM” value was 2.65%.
`CCCNC(=O)c1cc2c(s1)CS(=O)(=O)C2` was tested, and the “% Inhibition @ 10 uM” value was -9.3%.
`CCc1cccc(C)c1NC(=O)C1C2C=CC(O2)C1C(=O)O` (centres unmarked) was tested, and the “% Inhibition @ 10 uM” value was 1.15%.
In the case of `CCN(CC)CCNC(=O)NC1(C(F)(F)F)Oc2cc(Cl)c(Cl)cc2O1`, the “% Inhibition @ 10 uM” value is reported as 2.06%.
`Cc1cc(C(=O)NCC2CCN(CC(C)C)C2)c2c(C)nn(-c3ccccc3Cl)c2n1` (centres unmarked) was tested, and the “% Inhibition @ 10 uM” value was -4.97%.
In the case of `Cc1nc(C)n(C)c(=O)c1-c1ccccc1`, the “% Inhibition @ 10 uM” value is reported as 1.83%.
For `CN(C)c1ccc(/C=C/c2nnnn2-c2ccccc2)cc1`, the “% Inhibition @ 10 uM” value was -4.01%.
In the case of `O=[N+]([O-])c1ccc(CSc2nc3ccccc3o2)cc1`, the “% Inhibition @ 10 uM” value is reported as -4.26%.
With `CCN(CC)Cc1c(C(C)=O)c2cc(O)ccc2n1-c1ccccc1` the “% Inhibition @ 10 uM” value was 0.708%.
For `CCOC(=O)C1=C(C)N=c2s/c(=C/c3ccc4c(c3)OCO4)c(=O)n2C1c1ccccc1F` (centres unmarked), the “% Inhibition @ 10 uM” value was 0.997%.
`O=C(NCCCc1ccccc1)c1cc2c(Cl)ccc3c2n1CCO3` was tested, and the “% Inhibition @ 10 uM” value was 4.44%.
In the case of `Fc1ccccc1N1CCN(Cc2ccccc2)CC1`, the “% Inhibition @ 10 uM” value is reported as -3.71%.
For `CC(NC(=O)Cn1nc(-c2ccc(Cl)cc2)ccc1=O)c1ccccc1` (centres unmarked), the “% Inhibition @ 10 uM” value was 1.62%.
For `O=C(CN(c1ccccc1F)S(=O)(=O)c1ccccc1)N1CCOCC1`, the “% Inhibition @ 10 uM” value was -3.92%.
`Cc1ccc(NC(=O)CSC2=C(C#N)C(c3cccs3)CC(=O)N2)cc1` (centres unmarked) was tested, and the “% Inhibition @ 10 uM” value was -2.91%.
`COc1ccc(-c2cc(C(F)F)n3ncc(C(=O)N4CCN(c5ccc(OC)cc5)CC4)c3n2)cc1` was tested, and the “% Inhibition @ 10 uM” value was -3.65%.
For `O=S(=O)(c1ccc(Cl)cc1)n1c(C2CCCCC2)nc2ccccc21`, the “% Inhibition @ 10 uM” value was 1.5%.
`Cc1oc(C)c(C(=O)NC(Cc2ccccc2)C(=O)O)c1C(=O)NC(Cc1ccccc1)C(=O)O` (centres unmarked) was tested, and the “% Inhibition @ 10 uM” value was 0.9%.
In the case of `Cc1cc(=O)oc2c(O)c(O)ccc12`, the “% Inhibition @ 10 uM” value is reported as -3.65%.
In the case of `CCCCOc1cccc(C(=O)Nc2cccc(OC)c2)c1`, the “% Inhibition @ 10 uM” value is reported as -2.6%.
`CN1C(=O)c2ccc(C(=O)Nc3ccc(Br)cc3C(=O)O)cc2C1=O` was tested, and the “% Inhibition @ 10 uM” value was -14.3%.
In the case of `CCc1[nH]nc2c1C(c1ccc(OC)c(OC)c1)C(C#N)=C(N)O2` (centres unmarked), the “% Inhibition @ 10 uM” value is reported as 0.746%.
